IC50 is the fitted dose that halves viability relative to control wells, and lower means more sensitive; where the fit passes the top or lowest dose, that dose stands as a limit. AUC sums up the same curve from the lowest dose to the 256-fold higher top dose; values near 1 show little effect. Where the top dose is marked as inferred, it is not printed in the source and was worked back from the curve model. For some of these results: An entry number marks a drug with two screens in the source, which often give different values.
compound: Cc1cccc(-c2[nH]c(C(C)(C)C)nc2-c2ccc3nccnc3c2)n1 [SB-525334]; assay: Viability of human cancer cell lines after 72 h of drug (GDSC screen); details: top dose 20 µM; top dose inferred
Procedure: (§1)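 Human cancer cell lines in 384-well plates, medium with 10% serum, drug for 72 h over a 256-fold dose range (nine 2-fold or five 4-fold steps up to the top dose). Adherent lines were fixed and stained with the nucleic acid dye Syto60, suspension lines read with resazurin; signal relative to control wells, capped at 0 and 100%. One two-parameter sigmoid per drug and line, fitted in a mixed model over all curves with the slope shared within a line.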

| Cell Line | AUC | IC50 [µM] |
| --- | --- | --- |
| CAMA-1 (breast, adherent) | 0.932 | > 20 |
| COLO-792 (melanoma, adherent) | 0.98 | > 20 |
| COR-L105 (lung adenocarcinoma, adherent) | 0.641 | 3.35 |
| COR-L303 (small cell lung carcinoma, suspension) | 0.904 | > 20 |
| COR-L311 (small cell lung carcinoma, suspension) | 0.97 | > 20 |
| Caov-3 (ovary, adherent) | 0.911 | > 20 |
| GCT (soft tissue, adherent) | 0.989 | > 20 |
| H2818 (mesothelioma, adherent) | 0.989 | > 20 |
| HCC70 (breast, adherent) | 0.904 | > 20 |
| HO-1-N-1 (head and neck, adherent) | 0.983 | > 20 |
| HPAC (pancreas, adherent) | 0.965 | > 20 |
| HPAF-II (pancreas, adherent) | 0.866 | > 20 |
| HSC-3 (head and neck, adherent) | 0.99 | > 20 |
| HTC-C3 (thyroid, adherent) | 0.818 | 13 |
| J82 (bladder, adherent) | 0.988 | > 20 |
| KOSC-2 (head and neck, adherent) | 0.984 | > 20 |
| KP-4 (pancreas, adherent) | 0.972 | > 20 |
| KYSE-70 (oesophagus, adherent) | 0.983 | > 20 |
| KYSE-180 (oesophagus, adherent) | 0.889 | > 20 |
| KYSE-270 (oesophagus, adherent) | 0.979 | > 20 |
| LU-99A (large cell lung carcinoma, adherent) | 0.97 | > 20 |
| ML-1 (thyroid, adherent) | 0.981 | > 20 |

| Cell Line | AUC | IC50 [µM] |
| --- | --- | --- |
| NCI-H1299 (large cell lung carcinoma, adherent) | 0.953 | > 20 |
| NCI-H1573 (lung adenocarcinoma, adherent) | 0.937 | > 20 |
| NCI-H1734 (lung adenocarcinoma, adherent) | 0.9 | > 20 |
| NCI-H1793 (lung adenocarcinoma, adherent) | 0.977 | > 20 |
| NCI-H2170 (lung squamous cell carcinoma, adherent) | 0.971 | > 20 |
| NCI-H2228 (lung adenocarcinoma, adherent) | 0.963 | > 20 |
| PCI-38 (head and neck, adherent) | 0.921 | > 20 |
| PL18 (pancreas, adherent) | 0.988 | > 20 |
| RD (rhabdomyosarcoma, adherent) | 0.952 | > 20 |
| RT-112 (bladder, adherent) | 0.831 | 14 |
| SN12C (kidney, adherent) | 0.963 | > 20 |
| SNU-175 (large intestine, suspension) | 0.937 | > 20 |
| SNU-398 (liver, adherent) | 0.833 | 13.6 |
| SNU-475 (liver, adherent) | 0.973 | > 20 |
| SNU-1040 (large intestine, adherent) | 0.941 | > 20 |
| SW156 (kidney, adherent) | 0.961 | > 20 |
| SW837 (large intestine, adherent) | 0.934 | > 20 |
| SW1088 (glioma, adherent) | 0.973 | > 20 |
| SW1116 (large intestine, adherent) | 0.982 | > 20 |
| SW1463 (large intestine, adherent) | 0.964 | > 20 |
| VMRC-RCW (kidney, adherent) | 0.984 | > 20 |
| YMB-1-E (breast, adherent) | 0.936 | > 20 |

compound: NC(=O)c1ccc(N(C(N)=O)c2c(F)cccc2F)nc1-c1ccc(F)cc1F [VX-702]; assay: as above; details: top dose 2 µM; top dose inferred
Procedure: as §1

| Cell Line | AUC | IC50 [µM] |
| --- | --- | --- |
| HCC70 (breast, adherent) | 0.979 | > 2 |
| KYSE-70 (oesophagus, adherent) | 0.985 | > 2 |
| NCI-H1734 (lung adenocarcinoma, adherent) | 0.984 | > 2 |
| VMRC-RCW (kidney, adherent) | 0.967 | > 2 |

compound: O=C(c1cc(Cc2n[nH]c(=O)c3ccccc23)ccc1F)N1CCN(C(=O)C2CC2)CC1 [Olaparib]; assay: as above; details: top dose 5 µM; screen: GDSC drug entry 1017; top dose inferred
Procedure: as §1

| Cell Line | AUC | IC50 [µM] |
| --- | --- | --- |
| KYSE-70 (oesophagus, adherent) | 0.96 | > 5 |
| NCI-H1734 (lung adenocarcinoma, adherent) | 0.935 | > 5 |
| VMRC-RCW (kidney, adherent) | 0.981 | > 5 |

same assay, conditions: top dose 10 µM; screen: GDSC drug entry 1495

| Cell Line | AUC | IC50 [µM] |
| --- | --- | --- |
| 769-P (kidney, adherent) | 0.854 | 9.01 |
| A204 (rhabdomyosarcoma, adherent) | 0.794 | 6.21 |
| BEN (non-small cell lung carcinoma, adherent) | 0.982 | > 10 |
| BFTC-909 (kidney, adherent) | 0.867 | 8.66 |
| CAMA-1 (breast, adherent) | 0.942 | > 10 |
| COLO-792 (melanoma, adherent) | 0.986 | > 10 |
| COR-L32 (small cell lung carcinoma, suspension) | 0.957 | > 10 |
| COR-L105 (lung adenocarcinoma, adherent) | 0.91 | > 10 |
| GCT (soft tissue, adherent) | 0.674 | 1.84 |
| H2818 (mesothelioma, adherent) | 0.961 | > 10 |
| HO-1-N-1 (head and neck, adherent) | 0.903 | > 10 |
| HPAF-II (pancreas, adherent) | 0.867 | > 10 |
| HSC-3 (head and neck, adherent) | 0.894 | 9.02 |
| HTC-C3 (thyroid, adherent) | 0.914 | > 10 |
| J82 (bladder, adherent) | 0.934 | > 10 |
| KOSC-2 (head and neck, adherent) | 0.863 | 9.25 |
| KP-4 (pancreas, adherent) | 0.937 | > 10 |
| KYSE-70 (oesophagus, adherent) | 0.971 | > 10 |
| KYSE-180 (oesophagus, adherent) | 0.932 | > 10 |

| Cell Line | AUC | IC50 [µM] |
| --- | --- | --- |
| KYSE-270 (oesophagus, adherent) | 0.804 | 4.16 |
| LU-99A (large cell lung carcinoma, adherent) | 0.835 | 6.49 |
| ML-1 (thyroid, adherent) | 0.952 | > 10 |
| NCI-H1299 (large cell lung carcinoma, adherent) | 0.949 | > 10 |
| NCI-H1573 (lung adenocarcinoma, adherent) | 0.988 | > 10 |
| NCI-H1793 (lung adenocarcinoma, adherent) | 0.971 | > 10 |
| NCI-H2170 (lung squamous cell carcinoma, adherent) | 0.975 | > 10 |
| PCI-38 (head and neck, adherent) | 0.969 | > 10 |
| PL18 (pancreas, adherent) | 0.906 | > 10 |
| RD (rhabdomyosarcoma, adherent) | 0.928 | > 10 |
| RT-112 (bladder, adherent) | 0.977 | > 10 |
| SN12C (kidney, adherent) | 0.92 | > 10 |
| SNU-398 (liver, adherent) | 0.957 | > 10 |
| SNU-1040 (large intestine, adherent) | 0.972 | > 10 |
| SW156 (kidney, adherent) | 0.977 | > 10 |
| SW837 (large intestine, adherent) | 0.959 | > 10 |
| SW1088 (glioma, adherent) | 0.957 | > 10 |
| SW1116 (large intestine, adherent) | 0.979 | > 10 |
| SW1463 (large intestine, adherent) | 0.967 | > 10 |

From the supplement of paper PMC4967469
